One molecule from patent US20200353078A1 can be followed below.

Experiment [1] concerns the target T1, Human IL-33 Flag®His (human).
T1 sequence: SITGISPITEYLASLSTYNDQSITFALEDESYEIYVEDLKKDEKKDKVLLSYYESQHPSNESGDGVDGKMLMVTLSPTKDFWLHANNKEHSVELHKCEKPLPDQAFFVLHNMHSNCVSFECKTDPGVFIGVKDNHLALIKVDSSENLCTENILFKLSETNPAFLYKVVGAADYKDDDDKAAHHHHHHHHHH
Briefly: HTRF IL-33:ST2 binding assay, single point, unpurified scFv periplasmic extract at 50% v/v; blocked ligand human ST2-Fc; total binding wells 98-102, non-specific binding wells 0.

The target is the same in experiment [2]. The experiment can be described thus: HTRF competition: purified scFv titrated against human ST2-Fc for FLAG-His human IL-33.

B1: IL330004 scFv (scFv, part only; not given: linker, domain order and tags, V domains shown, not shown: another chain or arm of the molecule; small tags and cut ends)
VH: [about 100 residues not listed]ESYYDFWSGQYYFDYWGQGTMVTVSS
VL: SYELTQPPSVSVSPGQTASISCSGDKLGDKFASWYQQKPGQSPVLIIYQDRKRPSGIPERFSGSNSGNTATLTISGTQTTDEADYYCQAWDGSLYVFGTGTKLTVL
B1 returned a % Specific Binding in experiment [1] of 81%. Also, the IC50 (read off the curve) in experiment [2] was 40 nM.
